Common to all, as to assay: two-hybrid; cotransformation of pGBKT7 (BD, bait) and pGADT7 (AD, prey) into S. cerevisiae Y2H Gold; drop dilutions on -LT and -LTH (triple dropout) medium, 30 °C
Assay [1] concerns the target T1, αKNL2 (KINETOCHORE NULL2), full length, fused to the GAL4 DNA-binding domain (Arabidopsis thaliana) (UniProt F4KCE9).
T1 sequence: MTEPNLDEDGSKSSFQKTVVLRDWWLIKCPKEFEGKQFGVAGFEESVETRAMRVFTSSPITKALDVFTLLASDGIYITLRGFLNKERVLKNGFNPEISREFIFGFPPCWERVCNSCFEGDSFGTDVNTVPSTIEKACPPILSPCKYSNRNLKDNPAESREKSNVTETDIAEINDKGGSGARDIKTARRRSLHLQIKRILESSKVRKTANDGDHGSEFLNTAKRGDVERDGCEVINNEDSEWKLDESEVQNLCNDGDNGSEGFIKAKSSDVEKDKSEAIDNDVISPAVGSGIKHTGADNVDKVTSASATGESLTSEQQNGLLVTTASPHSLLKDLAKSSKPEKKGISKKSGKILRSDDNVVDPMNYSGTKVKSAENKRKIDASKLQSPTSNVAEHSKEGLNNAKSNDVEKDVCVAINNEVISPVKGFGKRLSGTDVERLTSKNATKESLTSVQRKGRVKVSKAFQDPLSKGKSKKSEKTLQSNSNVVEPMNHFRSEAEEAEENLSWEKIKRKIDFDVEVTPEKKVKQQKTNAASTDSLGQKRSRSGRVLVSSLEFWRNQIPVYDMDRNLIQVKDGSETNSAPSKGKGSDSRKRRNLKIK

Assay [2] addresses T2, αKNL2-N (N-terminal fragment of αKNL2, 1 to 363 aa) fused to the GAL4 DNA-binding domain (Arabidopsis thaliana) (UniProt F4KCE9).
T2 sequence: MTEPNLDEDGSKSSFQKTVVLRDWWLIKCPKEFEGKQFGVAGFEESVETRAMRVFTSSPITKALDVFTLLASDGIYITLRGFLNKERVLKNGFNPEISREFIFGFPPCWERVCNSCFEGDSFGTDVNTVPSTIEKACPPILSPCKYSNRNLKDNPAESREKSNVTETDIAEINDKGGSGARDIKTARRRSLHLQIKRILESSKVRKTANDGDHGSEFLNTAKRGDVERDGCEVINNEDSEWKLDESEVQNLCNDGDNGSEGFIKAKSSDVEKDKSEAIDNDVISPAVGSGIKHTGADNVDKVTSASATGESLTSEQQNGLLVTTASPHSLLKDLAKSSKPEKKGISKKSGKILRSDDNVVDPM

For assay [3], the target named is T3, αKNL2-C (C-terminal fragment of αKNL2, 364 to 599 aa) fused to the GAL4 DNA-binding domain (Arabidopsis thaliana) (UniProt F4KCE9).
T3 sequence: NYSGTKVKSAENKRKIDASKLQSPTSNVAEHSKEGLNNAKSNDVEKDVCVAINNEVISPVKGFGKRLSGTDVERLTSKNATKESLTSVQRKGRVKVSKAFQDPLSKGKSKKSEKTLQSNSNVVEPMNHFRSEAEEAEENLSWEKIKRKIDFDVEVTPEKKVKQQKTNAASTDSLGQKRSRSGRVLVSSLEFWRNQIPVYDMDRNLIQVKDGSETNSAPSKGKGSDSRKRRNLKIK

For assay [4], the target named is T4, αKNL2^ΔD-box2 fused to the GAL4 DNA-binding domain (Arabidopsis thaliana) (UniProt F4KCE9).
T4 sequence: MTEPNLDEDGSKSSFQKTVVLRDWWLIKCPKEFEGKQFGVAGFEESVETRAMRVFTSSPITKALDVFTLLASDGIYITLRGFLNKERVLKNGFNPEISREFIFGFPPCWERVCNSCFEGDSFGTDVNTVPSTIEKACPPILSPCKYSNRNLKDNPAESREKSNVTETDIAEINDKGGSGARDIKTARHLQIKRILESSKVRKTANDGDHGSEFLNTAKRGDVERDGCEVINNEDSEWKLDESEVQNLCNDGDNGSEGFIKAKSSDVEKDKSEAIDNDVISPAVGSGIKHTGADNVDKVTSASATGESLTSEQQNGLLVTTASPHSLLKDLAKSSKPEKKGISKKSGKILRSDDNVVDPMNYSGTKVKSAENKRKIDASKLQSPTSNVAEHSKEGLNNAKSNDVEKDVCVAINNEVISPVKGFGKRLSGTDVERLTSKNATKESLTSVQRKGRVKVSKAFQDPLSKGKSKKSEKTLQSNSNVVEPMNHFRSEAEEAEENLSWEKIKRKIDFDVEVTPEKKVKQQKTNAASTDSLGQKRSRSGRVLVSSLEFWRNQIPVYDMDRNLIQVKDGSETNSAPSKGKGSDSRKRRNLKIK

For assay [5], the target named is T5, αKNL2^ΔD-box1 fused to the GAL4 DNA-binding domain (Arabidopsis thaliana) (UniProt F4KCE9).
T5 sequence: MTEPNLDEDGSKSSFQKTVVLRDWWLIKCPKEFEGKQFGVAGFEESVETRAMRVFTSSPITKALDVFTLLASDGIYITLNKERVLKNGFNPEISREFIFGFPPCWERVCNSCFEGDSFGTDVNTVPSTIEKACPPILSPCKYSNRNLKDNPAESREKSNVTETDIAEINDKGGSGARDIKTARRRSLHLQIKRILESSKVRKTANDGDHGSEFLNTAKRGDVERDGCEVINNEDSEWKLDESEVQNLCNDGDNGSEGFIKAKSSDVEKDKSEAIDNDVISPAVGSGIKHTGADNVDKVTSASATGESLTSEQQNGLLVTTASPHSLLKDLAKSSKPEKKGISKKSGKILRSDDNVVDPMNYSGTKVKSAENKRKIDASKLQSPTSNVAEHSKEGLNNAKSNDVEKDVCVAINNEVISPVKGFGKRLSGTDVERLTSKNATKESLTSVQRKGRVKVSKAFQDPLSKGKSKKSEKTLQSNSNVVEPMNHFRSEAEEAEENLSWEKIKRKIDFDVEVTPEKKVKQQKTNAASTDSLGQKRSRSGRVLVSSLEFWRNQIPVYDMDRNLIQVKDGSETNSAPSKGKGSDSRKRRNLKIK

Results are given in words; binding and its absence hold for the method and conditions named. Some results given as binding are weak or reduced against the parent protein; the word gives no strength. Sequences can lack the tags named with a protein.

B1: CDC20.1 (Cell Division Cycle 20.1) fused to the GAL4 activation domain (protein, UniProt Q9SZA4 1-457)
chain: MDAGMNNTSSHYKTQARCPLQEHFLPRKPSKENLDRFIPNRSAMNFDYAHFALTEGRKGKDQTAAVSSPSKEAYRKQLAETMNLNHTRILAFRNKPQAPVELLPSNHSASLHQQPKSVKPRRYIPQTSERTLDAPDIVDDFYLNLLDWGSANVLAIALDHTVYLWDASTGSTSELVTIDEEKGPVTSINWAPDGRHVAVGLNNSEVQLWDSASNRQLRTLKGGHQSRVGSLAWNNHILTTGGMDGLIINNDVRIRSPIVETYRGHTQEVCGLKWSGSGQQLASGGNDNVVHIWDRSVASSNSTTQWLHRLEEHTSAVKALAWCPFQANLLATGGGGGDRTIKFWNTHTGACLNSVDTGSQVCSLLWSKNERELLSSHGFTQNQLTLWKYPSMVKMAELTGHTSRVLYMAQSPDGCTVASAAGDETLRFWNVFGVPETAKKAAPKAVSEPFSHVNRIR
With B1, the binding result was “binds” in assay [1]; “binds” in assay [2]; “binds” in assay [3]; “binds” in assay [4]; “no binding” in assay [5].

For the origin of these results see paper PMC12231567.
